Screen size: about 45,000 compounds; about 65 (0.1%) were called active. The call rests on the fitted dose curve; in most records, active means well fitted activation curve with a large enough effect; inconclusive means small, poorly fitted or top-dose-only effect; inactive means no such curve, though single readings can be large or run the other way. The list shows a part of the results.
Target: Galactocerebrosidase (Homo sapiens) (UniProt P54803)
Test: A Novel Cell-Based Assay to Identify Small Molecules for B -Galactocerebrosidase; further: 0% is about no effect; nearly all actives have a fitted effect of over 65% in size
Settings: 145M-Twi-hGALC-G270D cells (Twitcher mouse brain line with human GALC G270D), HMU-beta-Gal fluorescence, 48 h; series mostly up to 57.5 µM; activation: at the top concentration
Method in brief: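 Brain-derived Twitcher mouse 145M-Twi cells stably expressing human GALC-G270D or wild-type GALC, treated live, then residual GALC activity read by fluorescence of HMU-b-Gal substrate (0.1 mM final) in citrate-phosphate buffer pH 5.2 with sodium taurocholate. Signal increase indicates enhancement.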

UniProt P54803, sequence (P54803 whole entry, looked up): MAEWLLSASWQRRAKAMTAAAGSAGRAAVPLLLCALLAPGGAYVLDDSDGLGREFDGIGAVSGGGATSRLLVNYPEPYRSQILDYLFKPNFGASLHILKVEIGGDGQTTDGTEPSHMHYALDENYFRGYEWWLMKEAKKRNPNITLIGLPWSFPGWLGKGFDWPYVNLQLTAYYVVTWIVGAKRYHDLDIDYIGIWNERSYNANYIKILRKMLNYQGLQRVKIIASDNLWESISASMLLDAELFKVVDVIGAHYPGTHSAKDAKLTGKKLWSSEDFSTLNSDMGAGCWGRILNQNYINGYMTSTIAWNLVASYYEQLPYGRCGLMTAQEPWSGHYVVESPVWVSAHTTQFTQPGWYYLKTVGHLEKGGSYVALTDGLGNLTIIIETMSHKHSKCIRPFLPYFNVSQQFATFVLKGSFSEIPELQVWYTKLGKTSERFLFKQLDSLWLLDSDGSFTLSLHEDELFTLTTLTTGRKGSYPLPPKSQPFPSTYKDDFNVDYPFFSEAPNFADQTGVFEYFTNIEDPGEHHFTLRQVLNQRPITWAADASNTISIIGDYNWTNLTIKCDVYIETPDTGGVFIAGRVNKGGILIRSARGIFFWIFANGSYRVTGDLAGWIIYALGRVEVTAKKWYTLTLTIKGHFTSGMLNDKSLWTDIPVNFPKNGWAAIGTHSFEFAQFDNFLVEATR

activation, inactive:
Cc1nn(C)c2c1c(C(F)(F)F)cc(=O)n2C(C)C(=O)NCCc1ccc(Cl)cc1 (stereo not given) -26.7%
CCOC(=O)Cc1ccc(NC(=O)n2ncc3cc(Cl)ccc32)cc1 -5.9%
CCOC(=O)c1cnc2c(Cl)c(Cl)ccc2c1NCCN1CCOCC1 -10.6%
CNS(=O)(=O)c1ccc(NC(=O)c2cnn3c(C(F)F)cc(-c4ccccc4)nc23)cc1 -9.7%
N#Cc1ccc(C(=O)Nc2ccccc2-c2nc3ccccc3s2)c(F)c1 6.54%
Cc1ccc(Oc2coc3cc(OCC(=O)NC4CCCCC4)ccc3c2=O)cc1 -2.05%
COc1ccc(OCc2ccc(-c3nc(C#N)c(NCc4ccccc4)o3)o2)cc1 -12.9%
O=C(NCC(c1ccc2c(c1)OCO2)N1CCN(c2ccc(F)cc2)CC1)c1cccc([N+](=O)[O-])c1 (stereo not given) -40.7%
c1ccc(C(O[C@H]2CCCN(CCc3ccc4c(c3)OCO4)C2)c2ccccc2)cc1 -8.54%
Cc1ccc2onc(CNC(=O)Nc3ccccc3C#N)c2c1 -18.7%
CCc1ccc(NC(=O)C2CCCN(c3nn4cc(-c5ccc(OC)cc5)nc4s3)C2)cc1 (stereo not given) -6.05%
CCOc1ccc(C2C(C(=O)OC)=C(C)NC3=C2C(=O)c2ccccc23)cc1OC (stereo not given) -27.8%
CN(C1CCCCC1)S(=O)(=O)c1ccc2c(c1)c(=O)c(C(=O)NCc1ccccc1Cl)cn2C -13.8%
O=C(Nc1ccc(F)cc1Cl)C1CCN(c2ncnc3c2nc2n3CCCCC2)CC1 -18.9%
COc1ccc(Nc2ncnc3c2c(-c2ccccc2)cn3-c2ccc(C)c(Cl)c2)cc1OC -6.35%
COc1cccc(CNC(=O)CCc2c(C)nc3c(c2C)c(=O)n(C)c(=O)n3C)c1 -6.37%
CCc1ccccc1NC(=O)CSc1ncccc1C(=O)O -10.6%
Cc1ccc(-n2c3c(c(=O)[nH]c2=O)C(NS(=O)(=O)c2ccc(C)cc2)(C(F)(F)F)C(=O)N3)cc1 (stereo not given) -7.22%
COc1ccc2[nH]cc(CCNC(=O)Nc3cccc(F)c3)c2c1 -2.85%
CCOc1ccc(CN2C(=O)c3ccccc3Sc3ccc(C(=O)NCCc4ccccc4)cc32)cc1 -7.66%
CC(=O)c1ccc(NS(=O)(=O)c2cnc(N)nc2)cc1 10%
Cc1cccc(NC(=O)CSC2=Nc3ccccc3C3=NC(CCC(=O)NCc4ccc(F)cc4)C(=O)N23)c1 (stereo not given) -13.5%
CCOc1ccccc1NC(=O)Cc1csc(COc2cccc(C)c2)n1 -13.7%
CC(=O)c1cccc(Nc2ncnc3c2cnn3C)c1 2.54%
O=C(NCCc1ccc(Cl)cc1)c1ccc(Cn2c(=O)[nH]c3ccccc3c2=O)cc1 -26.4%
CCOc1ccccc1NC(=O)c1cc2cc(C)ccc2n1C -16.5%
COC(=O)c1c(NC(=O)COc2c(C)cccc2C)sc2c1CCCC2 -11.7%
CC1CCN(S(=O)(=O)c2ccc(C(=O)Nc3nc4ccc(F)cc4s3)cc2)CC1 -9.16%
COc1ccccc1NC(=O)C1=C(C)Nc2nc(-c3ccco3)nn2C1c1ccccc1 (stereo not given) -14.5%
Cc1ccccc1NC(=O)c1c(NC(=O)c2ccncc2)sc2c1CCC(C(C)(C)C)C2 (stereo not given) -19.6%
CCc1ccc(NC(=O)C2CCC(CNS(=O)(=O)c3cccs3)CC2)cc1 (stereo not given) -3.28%
COc1ccc(-c2nc(SCC(=O)Nc3ccc4c(c3)OCO4)c(-c3ccccc3)[nH]2)cc1 -15.3%
COc1cccc(CNC(=O)c2ccc3c(c2)N(C)C(=O)C2CCCCN32)c1 (stereo not given) -18.5%
Cc1ccccc1OCc1cc(=O)n2c(-c3ccccc3)csc2n1 -5.82%
CC(C)CCNC(=O)c1cn(C)c2ccc(S(=O)(=O)N3CCCC3)cc2c1=O -3.51%
CCOc1ccc(-c2cc3nc(C4CCN(C(=O)OC(C)(C)C)CC4)c(C(=O)Nc4ccc(C)c(F)c4)cn3n2)cc1 -11.1%
CCn1cc(C(=O)N2CCN(c3cc(Cl)ccc3C)CC2)c(=O)c2cc(S(=O)(=O)N3CCOCC3)ccc21 0.257%
CCC(=O)N1CCc2cc(Br)cc(S(=O)(=O)N3CCC(C(=O)N(CC)CC)CC3)c21 -16.8%
COc1ccc(Nc2nc3c(S(=O)(=O)c4ccc(Br)cc4)nnn3c3ccsc23)c(OC)c1 -14.1%
CC1CCN(c2cc3c(cc2F)c(=O)c(S(=O)(=O)c2ccc(Cl)cc2)cn3C)CC1 -21%
Cc1ccc(CNc2oc(-c3ccc(COc4ccc(Cl)cc4)o3)nc2C#N)cc1 -8.98%
CCOC(=O)c1c(NC(=O)c2cc(-c3ccc(Cl)cc3)on2)sc2c1CCCC2 -15.8%
CNS(=O)(=O)c1cc(-c2nn3c(C)nnc3c3ccccc23)ccc1C -10.9%
CCN1CCN(c2ncc3c(n2)CCN(Cc2sccc2C)C3)CC1 -13.2%
COc1cc(NC(=O)CC(C)S(=O)(=O)c2ccc3c(c2)CCN3C(C)=O)cc(OC)c1OC (stereo not given) -7.62%
O=C(CSc1nnc2scc(-c3ccc(Cl)cc3)n12)Nc1cccc(C(F)(F)F)c1 -27.3%
CCOc1ccc(Nc2nc(C)c(NC(=O)c3ccc(C)cc3)c(Nc3ccc(OCC)cc3)n2)cc1 1.72%
COc1ccc(Cl)cc1NC(=O)c1cnc(SC)nc1-c1ccccc1 -9.62%
Cc1ccccc1NC(=O)C(=O)NCC1(c2ccccc2)CCCC1 -6.71%
CCc1ccc(C(c2ccccc2)c2c[nH]c3ccc(C)cc23)s1 (stereo not given) -18.8%
CN(CC(=O)Nc1ccc(Cl)cc1F)S(=O)(=O)c1ccc2c(c1)n(C)c(=O)c(=O)n2C -7.91%
CC(C(=O)O)c1ccc(CC2CCCC2=O)cc1 (stereo not given) -8.61%
Cc1sc2ncn(CC(=O)N3CCN(c4ccccc4)CC3)c(=O)c2c1S(=O)(=O)N1CCN(c2ncccn2)CC1 0.2%
CCc1cccc(-n2nnc(-c3nsc(NC(=O)c4ccc(C)cc4)n3)c2C)c1 -17.8%
Cc1ccc(NC(=O)CN(C)S(=O)(=O)c2cccc3cccnc23)cc1F -6.84%
CCn1c(=O)c2cc(C(=O)N3CCN(c4cccc(OC)c4)CC3)sc2c2ccccc21 -7.05%
COc1ccc(Cl)cc1Nc1nc2ccc(C(=O)c3ccccc3)cc2n2cnnc12 -17.1%
CCOC(=O)Cc1ccc(NC(=O)N2CCc3c(sc4c3CCCC4)C2c2ccc(F)cc2)cc1 (stereo not given) -21.4%
Cc1ccc(NC(=O)[C@H]2O[C@@H]3OC(C)(C)O[C@@H]3[C@H]3OC(C)(C)O[C@H]32)cc1F -9.33%
Cc1ccc(NC(=O)c2cccc(N3CCCS3(=O)=O)c2)cc1C 3.25%

From PubChem BioAssay AID1159614 (National Center for Advancing Translational Sciences (NCATS), 2016)
